# Data taken from PubChem BioAssay AID1468 (National Center for Advancing Translational Sciences (NCATS), 2008).
# Where “and” joins values, the source holds several entries; their conditions need not be identical. Equal entries are not always repeated. About 1,100 (0.39%) of roughly 280,000 compounds were called active. This list was built around the results that the source calls inconclusive (neither active nor inactive); the mix of calls is not that of the screen. Calls follow the shape of the dose curve; as a rule, active = well fitted inhibition curve with a large enough effect; inconclusive = small, poorly fitted or top-dose-only effect, or effect the other way; inactive = flat fitted curve, though single readings scatter. Potencies beside an inconclusive call are fits to weak or partial responses and may not hold up.
# Biological target: Microtubule-associated protein tau (Homo sapiens) (UniProt P10636)
# Assay: qHTS for Inhibitors of Tau Fibril Formation, Fluorescence Polarization; also: nearly all actives have a fitted effect of over 55% in size
# Conditions: K18 P301L tau heparin fibrillization, Alexa594 FP, 6 h; series mostly up to 57.7 µM
# Summary of the method: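 K18 P301L tau (15 uM unlabeled/0.24 uM Alexa 594-labeled, final) + compound + heparin 20 uM final; 100 mM NaOAc pH 7; 6 hr 37 C; ThT 30 uM final added, 1 hr RT; FP ex 555/em 632 nm.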
# Potency is read from the fitted curve at half-maximal effect; tags tell the direction and shape of the fitted curve.
# Sequence of UniProt P10636 (P10636 whole entry, looked up): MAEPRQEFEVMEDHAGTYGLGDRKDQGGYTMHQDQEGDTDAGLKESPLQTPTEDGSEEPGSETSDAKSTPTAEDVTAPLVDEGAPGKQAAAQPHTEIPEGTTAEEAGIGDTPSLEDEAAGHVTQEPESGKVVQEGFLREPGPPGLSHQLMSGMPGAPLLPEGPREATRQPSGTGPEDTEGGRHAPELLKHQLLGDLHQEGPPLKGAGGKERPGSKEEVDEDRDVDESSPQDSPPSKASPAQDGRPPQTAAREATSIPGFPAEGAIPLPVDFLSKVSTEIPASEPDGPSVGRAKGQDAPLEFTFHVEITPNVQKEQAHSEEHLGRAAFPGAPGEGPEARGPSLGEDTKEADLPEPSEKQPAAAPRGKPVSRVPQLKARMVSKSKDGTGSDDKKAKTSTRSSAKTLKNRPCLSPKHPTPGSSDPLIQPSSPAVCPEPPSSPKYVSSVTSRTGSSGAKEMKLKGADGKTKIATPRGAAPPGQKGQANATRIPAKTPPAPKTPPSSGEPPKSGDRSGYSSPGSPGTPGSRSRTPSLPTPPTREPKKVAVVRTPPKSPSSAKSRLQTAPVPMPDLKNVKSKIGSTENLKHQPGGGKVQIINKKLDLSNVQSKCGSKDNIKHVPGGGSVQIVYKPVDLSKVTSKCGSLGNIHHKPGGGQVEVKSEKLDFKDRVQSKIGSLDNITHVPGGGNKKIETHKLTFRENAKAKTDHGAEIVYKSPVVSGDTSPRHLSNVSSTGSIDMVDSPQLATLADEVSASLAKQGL
row,SMILES,Potency
1,CCCC/C=C/[C@@H](NP(=O)(c1ccccc1)c1ccccc1)c1ccccc1OC,"inconclusive: 39.8 µM [activator, single point]"
2,COc1ccc(/C=C2\C(=N\O)C3CCN2CC3)cc1,"inconclusive: 15.8 µM [activator, single point]"
3,COc1ccc(/C=C/c2nc(-c3ccccc3O)n(-c3ccccc3)n2)cc1OC,"inconclusive: 0.251 µM [inhibitor, full curve]"
4,CCC(C)n1c(O)c(/C=N/Nc2ccccc2)c(=O)[nH]c1=S (centres undefined),inactive
5,N#CC(C#N)=Cc1ccc([N+](=O)[O-])c(O)c1,"inconclusive: 4.47 µM [inhibitor, full curve, poor fit] and inconclusive: 7.94 µM [inhibitor, single point] and inconclusive: 28.2 µM [inhibitor, partial curve]"
6,CN1CCN(c2ccc3nccnc3c2)CC1,inactive
7,O=C1NC(=O)C(=Cc2cc([N+](=O)[O-])ccc2N2CCCCC2)C(=O)N1,inactive
8,C=CC1CN2CCC1CC2C(O)c1ccnc2ccccc12 (centres undefined),"inconclusive: 39.8 µM [inhibitor, single point]"
9,O=C1c2ccccc2C(=O)N1Cc1nc(-c2ccccc2)no1,"inconclusive: 17.8 µM [inhibitor, single point]"
10,CCN1CCN(c2ccc(N)cc2)CC1,"inconclusive: 28.2 µM [inhibitor, partial curve, poor fit]"
11,Nc1c(C(=O)NCc2ccco2)c2nc3ccccc3nc2n1Cc1ccccc1,"inconclusive: 39.8 µM [inhibitor, single point]"
12,CCN(CC)C(=O)c1ccc2c(c1)C1C(Cl)C(Sc3ccccc3[N+](=O)[O-])CC1C(C(=O)O)N2 (centres undefined),"inconclusive: 39.8 µM [inhibitor, single point]"
13,O=C(O)CCn1cc(C=C2C(=O)NC(=S)NC2=O)c(-c2cccc(Br)c2)n1,"inconclusive: 35.5 µM [inhibitor, single point]"
14,CCOc1cc(CNCCc2c[nH]c3ccccc23)cc(Cl)c1OCC,"inconclusive: 22.4 µM [activator, single point]"
15,CN1C2CC3CC1C(O3)C2O (centres undefined),"inconclusive: 35.5 µM [inhibitor, single point]"
16,Cc1ccc(-c2nc(S(=O)(=O)c3ccc(C)cc3)c(SCC(=O)Nc3ccc(F)cc3)o2)cc1,"inconclusive: 3.98 µM [inhibitor, full curve]"
17,CCn1nc(-c2cccs2)nc2c(=O)n(C)c(=O)nc1-2,"inconclusive: 12.6 µM [inhibitor, partial curve, poor fit]"
18,CCCN1CCc2cccc3c2C1Cc1ccc(O)c(O)c1-3 (centres undefined),active: 28.2 µM and active: 31.6 µM
19,Cc1nn(-c2ccccc2)c(Cl)c1/C=N\NC(=O)c1cnccn1,"inconclusive: 35.5 µM [inhibitor, single point]"
20,C=CCNC(=S)/N=C/c1c(O)[nH]c(=O)[nH]c1=O,"inconclusive: 39.8 µM [inhibitor, single point]"

row,SMILES,Potency
1,CCC(C)N1C(=O)NC(=O)C2(Cc3c(ccc4ccccc34)N(C)C2)C1=O (centres undefined),"inconclusive: 39.8 µM [inhibitor, single point]"
2,CCOC(=O)C1CCCN(c2ccc([N+](=O)[O-])c3nonc23)C1 (centres undefined),"inconclusive: 12.6 µM [inhibitor, partial curve, poor fit]"
3,CN1C(=O)C(=Cc2ccccc2OCCOc2ccc([N+](=O)[O-])cc2)C(=O)N(C)C1=O,"inconclusive: 17.8 µM [inhibitor, partial curve, poor fit]"
4,O=C1NC(=O)N(c2ccccc2)C(=O)/C1=C/c1ccc2c(c1)Cc1ccccc1-2,"inconclusive: 31.6 µM [inhibitor, partial curve, poor fit]"
5,CNC(=S)N(C)CCc1cc2c(c(OC)c1C=C1C(=O)NC(=O)NC1=O)OCO2,inactive
6,Nc1c(C(=O)Nc2cccc(F)c2)sc2nc(-c3cccs3)ccc12,"inconclusive: 44.7 µM [inhibitor, single point]"
7,CCn1c(O)c(C(c2ccccn2)c2c(O)n(CC)c(=S)[nH]c2=O)c(=O)[nH]c1=S,"inconclusive: 28.2 µM [inhibitor, single point]"
8,O=c1c(O)c(-c2ccc(O)c(O)c2)oc2cc(O)cc(O)c12,"inconclusive: 15.8 µM [activator, single point]"
9,C=C1C(O)C2OC3(CCC(/C=C/C(C)C4CC(C)=CC5(OC(CC(C)(O)C(=O)O)CCC5O)O4)O3)CCC2OC1C(O)CC(C)C1OC2(CCCCO2)CCC1C (centres undefined),"inconclusive: 0.0891 µM [inhibitor, partial curve, poor fit]"
10,CN1C(=O)C(=Cc2coc3ccccc3c2=O)C(=O)N(C)C1=O,"inconclusive: 15.8 µM [inhibitor, partial curve]"
11,Cc1ccc(CC2C(=O)N(C)C(=O)N(C)C2=O)s1,"inconclusive: 22.4 µM [inhibitor, single point]"
12,O=C(OC1Cc2c(O)cc(O)cc2OC1c1cc(O)c(O)c(O)c1)c1cc(O)c(O)c(O)c1 (centres undefined),active: 17.8 µM
13,COc1ccc(C2=C(C(C)=O)Sc3nnc(-c4ccc(Cl)cc4)n3N2C(C)=O)cc1OC,"inconclusive: 31.6 µM [inhibitor, partial curve]"
14,Cc1ccc2c(c1)CC1(CN2C)C(=O)NC(=O)N(C(C)C)C1=O (centres undefined),"inconclusive: 44.7 µM [inhibitor, single point]"
15,COC(=O)c1c(C)n(Cc2ccc3c(c2)OCO3)c2ccc(O)cc12,inactive
16,CCC(CO)(C(=O)OC1C[N+]2(C)CCC1CC2)c1ccccc1 (centres undefined),inactive
17,Cc1ccc(-n2c(=O)c3ccc(C(=O)NCc4ccccc4Cl)cc3n(CC(=O)Nc3cccc(Cl)c3)c2=O)cc1,"inconclusive: 25.1 µM [inhibitor, partial curve]"
18,CCOc1ccc(NC(=O)c2cc3c(C)nn(-c4ccccc4)c3s2)cc1,"inconclusive: 20 µM [inhibitor, partial curve]"
19,CCCn1c(C)c(C(=O)c2ccc3ccccc3c2)c2ccccc21,inactive
